First the molecules themselves.
B1: syntaxin-1 SNARE motif, rat syntaxin 1A […] (domain or fragment)
chain: not shown
notes: syntaxin 1A, rat, […] (SNARE motif); also called Syx; syntaxin-1([…]); source: E. coli, purified
B2: synaptobrevin SNARE motif, rat synaptobrevin 2 […] (domain or fragment)
chain: not shown
notes: synaptobrevin 2, rat, […] (SNARE motif); Uniformly 2H,15N-labelled in the NMR experiment; also called Syb; 2H,15N-Syb; source: E. coli, purified

Experiment [1] concerns the target B2. The experiment in a line: NMR titration; 1H-15N TROSY-HSQC of 2H,15N-labelled synaptobrevin SNARE motif free and incorporated into the SNARE complex assembled from the purified fragments (overnight, 4°C); spectra at 32°C. As to conditions: both partners purified.
The target in experiment [2] is T1, SNAP-25 N-terminal SNARE motif, human SNAP-25 residues 11-82 (human, UniProt P60880 11-82).
T1 construct: SNAP-25, human, residues 11-82 (N-terminal SNARE motif); also called SNAP-25 (11-82); source: E. coli, purified
The experiment is described as above. As to conditions: both partners purified.

T1 sequence (P60880 11-82): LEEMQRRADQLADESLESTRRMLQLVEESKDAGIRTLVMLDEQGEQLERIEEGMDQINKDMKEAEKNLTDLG

On to B1, for which the binding result in experiment [1] is “binds”.

In the case of B2, the binding result in experiment [2] is reported as “binds”.

Values taken from PMC4040926, “Re-examining how complexin inhibits neurotransmitter release” (eLife, 2014).
